From article PMC4336329 (PLoS ONE, 2015)
In all, about 310,000 compounds went through this assay and about 2,200 (0.71%) showed an effect of 50% or more. The effect is printed as a negative number. The list shows a part of the results.

These molecules were tested against human ether-à-go-go-related gene (hERG) potassium channel (human, UniProt Q12809) (assay: primary screen, population patch clamp on CHO cells stably expressing hERG).
Chain of human ether-à-go-go-related gene (hERG) potassium channel (Q12809 whole entry, looked up): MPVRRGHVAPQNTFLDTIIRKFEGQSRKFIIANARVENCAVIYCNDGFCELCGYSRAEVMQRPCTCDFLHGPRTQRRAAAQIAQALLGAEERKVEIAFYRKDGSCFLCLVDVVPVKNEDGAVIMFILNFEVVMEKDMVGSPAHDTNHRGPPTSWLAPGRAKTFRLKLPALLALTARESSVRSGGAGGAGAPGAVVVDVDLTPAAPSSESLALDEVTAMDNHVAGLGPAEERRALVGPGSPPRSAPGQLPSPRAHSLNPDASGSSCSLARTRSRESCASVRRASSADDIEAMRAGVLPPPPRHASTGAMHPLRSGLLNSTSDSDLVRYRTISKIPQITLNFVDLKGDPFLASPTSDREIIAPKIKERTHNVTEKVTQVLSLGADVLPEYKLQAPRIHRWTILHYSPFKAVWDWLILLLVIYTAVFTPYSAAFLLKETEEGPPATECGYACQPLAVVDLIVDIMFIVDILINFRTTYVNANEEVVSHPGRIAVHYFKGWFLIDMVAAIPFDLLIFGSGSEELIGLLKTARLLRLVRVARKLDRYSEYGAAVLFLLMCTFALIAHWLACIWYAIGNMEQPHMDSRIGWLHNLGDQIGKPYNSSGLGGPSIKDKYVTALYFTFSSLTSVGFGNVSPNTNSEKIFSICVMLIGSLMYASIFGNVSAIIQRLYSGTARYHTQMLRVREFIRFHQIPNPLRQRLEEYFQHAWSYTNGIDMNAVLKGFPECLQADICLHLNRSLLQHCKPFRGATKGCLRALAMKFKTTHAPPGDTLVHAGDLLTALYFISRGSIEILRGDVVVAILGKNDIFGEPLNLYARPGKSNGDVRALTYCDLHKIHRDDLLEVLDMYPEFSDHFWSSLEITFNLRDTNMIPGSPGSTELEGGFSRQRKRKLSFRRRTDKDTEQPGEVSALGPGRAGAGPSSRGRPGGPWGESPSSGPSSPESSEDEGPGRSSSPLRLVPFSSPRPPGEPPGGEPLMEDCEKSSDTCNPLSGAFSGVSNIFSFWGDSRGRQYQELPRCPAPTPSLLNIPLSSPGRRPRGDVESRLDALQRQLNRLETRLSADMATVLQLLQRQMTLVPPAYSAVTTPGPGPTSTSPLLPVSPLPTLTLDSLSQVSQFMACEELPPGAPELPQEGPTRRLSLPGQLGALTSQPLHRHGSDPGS

SMILES	hERG current change (%, negative = inhibition) at 1uM
Cc1ccccc1NC1=C/C(=N\S(=O)(=O)c2ccc(C(=O)O)cc2)c2ccccc2C1=O	13.3%
CCCC(=O)Nc1ccc(S(=O)(=O)Nc2cc(OC)nc(OC)n2)cc1	7.96%
CCC(=O)N1CC2(C)CN(C(=O)CC)CC(C)(C1)C2	7.92%
CCc1cccc(N(C(=O)c2csnn2)C(C(=O)NC2CCCC2)c2cccnc2)c1 (centres unmarked)	7.53%
CC1CCCCN1C(=O)CSc1nnc2c(n1)[nH]c1ccccc12 (centres unmarked)	9.09%
CCOC(=O)c1sc(Nc2cccc(C)c2C)nc1C	-9.3%
Nc1ccc2nc(CCCCCCc3nc4ccc(N)cc4[nH]3)[nH]c2c1	9.44%
COc1ccc(CN2C(=O)[C@@H]3C(c4ccccc4Cl)=NO[C@@H]3C2=O)cc1	6.12%
O=C(Nc1ccccc1-c1ccccc1)c1ccc(Cl)c([N+](=O)[O-])c1	7.97%
Cc1ccccc1NC(=O)c1cc(=O)c2ccccc2o1	2.83%
Cc1c(NC(=O)CN2C(=O)NC3(CCC(C)CC3)C2=O)c(=O)n(-c2ccccc2)n1C (centres unmarked)	12.9%
N#CC(c1cccc(Cl)c1)c1ncc(C(F)(F)F)cc1Cl (centres unmarked)	17.3%
COc1ccc(NC(=O)CN2C(=O)NC(C)(c3ccc(C)cc3)C2=O)cn1 (centres unmarked)	3.36%
CNC(=O)C(=O)NCCC1CCCCN1S(=O)(=O)c1cccs1 (centres unmarked)	14.8%
COc1ccccc1C(=O)NC(=S)N1CCCc2ccccc21	4.79%
Cc1cc(NC(=O)CSc2nnc(Cc3ccccc3)n2C)no1	0.442%
O=C1CCC(c2ccccc2)=NN1	1.61%
N#Cc1ccccc1COC(=O)CCCC1=NS(=O)(=O)c2ccccc2N1	5.85%
CCC(CO)N=CC1=C(O)CC(C)(C)CC1=O (centres unmarked)	10.1%
COc1cc(C2NC(=O)CCC2[N+](=O)[O-])cc(Br)c1OC (centres unmarked)	11%

SMILES	hERG current change (%, negative = inhibition) at 1uM
C=CCOc1ccc(CN(C)CC(O)COc2cccc3ccccc23)cc1 (centres unmarked)	12.2%
Cc1cccnc1NC(=O)C(C)N1C(=O)c2ccccc2C1=O (centres unmarked)	15.6%
C=CCn1c(=NC(=O)c2cccs2)sc2cccc(OC)c21	7.24%
Cc1cccc(C)c1NC(=O)C1CCCCN1C.Cl (centres unmarked)	15%
CCOc1ccc(CN(C)C(=O)CCl)cc1	3.59%
Cc1cccc(C(=O)NCC(=O)NCC2COc3ccccc3O2)c1 (centres unmarked)	5.46%
CC12CCC(C/C1=N\OC(=O)c1ccc(F)cc1)C2(C)C (centres unmarked)	6.63%
CC1CCN(C(=O)c2cc(F)c(F)cc2Cl)CC1	16.2%
O=C(OCc1ccccc1)N1CCc2ccccc21	10.1%
O=C(NCCCN1CCOCC1)c1onc(CSc2ccccc2)c1C(=O)NCCCN1CCOCC1	14.7%
NS(=O)(=O)c1ccc(N2N=C(c3ccc(Br)cc3)CC2c2ccc(F)cc2)cc1 (centres unmarked)	11.4%
O=S(=O)(c1cnc(Cl)c(Cl)c1)N1CCN(c2ncccn2)CC1	5.7%
COc1ccc(NC(=S)N2CCCCCC2)cc1OC	15.7%
COc1cc(NC(=O)C23CC4CC(C2)CC(n2nnc(C)n2)(C4)C3)c(OC)cc1Cl	6.09%
O=C(CNC(=O)c1cccs1)OCC(=O)c1ccc([N+](=O)[O-])cc1	24.6%
Cc1ccc(C)c(OCCCC(=O)O)c1	10.7%
O=C(CNC(=S)NC(=O)c1ccco1)c1ccccc1	-4.74%
COC(=O)c1ccc2c(=O)n(Cc3ccc(C(=O)NC(C)C)cc3)c(=S)[nH]c2c1	17.8%
COc1cccc(CCNC(=O)CC2C(=O)NCCN2CC(C)(C)C)c1 (centres unmarked)	13%
COc1ccccc1OCC(O)CNCc1ccc2c(c1)OCO2 (centres unmarked)	-4.46%

SMILES	hERG current change (%, negative = inhibition) at 1uM
COC(=O)C1=C(c2ccc(F)cc2OCc2ccccc2)C[C@@H]2CC[C@H]1N2C(=O)NC1CCN(Cc2ccccc2)CC1	13.4%
O=S(=O)(c1ccc(N2CC=C(c3ccccc3)CC2)nc1)N1CCCC1	8.41%
COc1cccc(NC(=O)C2CCCN(S(=O)(=O)c3cccc4cccnc34)C2)c1 (centres unmarked)	10.2%
CC(C)C(=O)c1ccc(O)c(O)c1	11.1%
COc1ccc(Cl)cc1NC(=O)N1CCN(C2CCCCC2)CC1	-14%
CC1(C)CC(N(Cc2cccs2)C(=O)c2ccco2)CCO1 (centres unmarked)	11.3%
Cc1cc(C)c(C#N)c(SCC(=O)Nc2ccccc2C(N)=O)n1	-3.6%
Nc1[nH]c(=O)[nH]c(=O)c1N=Nc1ccc(C(=O)O)cc1	13.5%
CCCCn1c(N)c(N(CC(C)C)C(=O)CSC(C)C(=O)Nc2cc(C)on2)c(=O)[nH]c1=O (centres unmarked)	10.6%
CCOC(=O)c1ccccc1C(=O)N1CCOCCOCCOCC1	6.2%
Cc1ccc(O)c(NS(=O)(=O)c2cccc3nsnc23)c1	-4.68%
CC(=O)c1ccccc1C(=O)N1CCCC(CCC(=O)N2CCN(c3ccccn3)CC2)C1 (centres unmarked)	13%
CC(C)[C@H](NC(=O)N1CCn2c1nc1ccccc12)C(=O)NCc1ccc2c(c1)OCO2	6.23%
COc1ccc(OC)c(CNC(=O)CCc2cn(C)c3ccccc23)c1	14.4%
COc1ccc([C@H]2CC(=O)C=C(c3ccccc3)C2)cc1OC	-3.28%
CC(C)Cn1nc(-c2ccccc2)c2ccccc2c1=O	10.6%
COc1ccc(C(Nc2cc(C)ccn2)c2ccc3ccc(C)nc3c2O)cc1 (centres unmarked)	4.46%
CCC(=O)c1ccc(CCCCCC(=O)O)s1	11.9%
Cc1cc(C(=O)NCCC2=CCCCC2)c(C)o1	8.46%
